# Source: PubChem BioAssay AID2546 (National Center for Advancing Translational Sciences (NCATS), 2010)
# Among all 310,000 compounds or so, about 11,000 (3.5%) were called active. This list was built around the results that the source calls inconclusive (neither active nor inactive); the mix of calls is not that of the screen. The call rests on the fitted dose curve; in most records, active means well fitted inhibition curve with a large enough effect; inconclusive means small, poorly fitted or top-dose-only effect, or effect the other way; inactive means flat fitted curve, though single readings scatter. Potencies of inconclusive entries are left out as doubtful fits.
# Assay: VP16 counterscreen qHTS for inhibitors of ROR gamma transcriptional activity;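 further: Gal4-VP16 expression switched on by copper sulfate through the metallothionein promoter; nearly all actives have a fitted effect of over 50% in size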
# Settings: Drosophila S2 Gal4-VP16 UAS-luciferase, luminescence, 20 h; series mostly up to 53.6 µM
# Potency means the concentration at half of the fitted maximal effect; tags describe the fitted curve by direction and shape.
row,SMILES,Potency
1,COc1ccccc1CC(Cc1nc2ccccc2[nH]1)c1nc2ccccc2[nH]1 (configuration not stated),"inconclusive [inhibitor, single point]"
2,S=C(NCc1ccccc1)Nc1ccc2ccccc2c1,active: 11.2 µM
3,Cc1ccc(CNc2ccc(N3C(=O)CCCC3=O)cc2[N+](=O)[O-])cc1,inactive
4,Cc1ccccc1C(=O)NNc1ccc([N+](=O)[O-])cc1,inactive
5,COc1ccc(-c2nsc(SCC(=O)Nc3ccc4c(c3)OCO4)n2)cc1,"inconclusive [inhibitor, single point]"
6,C#C[C@]1(OC(C)=O)CCC2C3CCC4=CC(=O)CCC4C3CC[C@]21C (some centres not stated),"inconclusive [inhibitor, single point]"
7,CCCc1ccc(C(C)NC(=S)NCc2ccc(F)cc2)cc1 (configuration not stated),active: 3.16 µM
8,O=C(NC(=S)Nc1ccc(Cc2ccncc2)cc1)c1ccc(F)cc1,"inconclusive [inhibitor, single point]"
9,CS/C(Nc1cc(Cl)ccc1Cl)=C(/C#N)C(=O)c1ccco1,active: 14.1 µM
10,CSc1nc(-c2ccccc2)nc(NC(=O)c2ccccc2)c1C(C)=O,inactive
11,CC(=O)N1N=C(c2cccc([N+](=O)[O-])c2)OC1c1ccc(Br)cc1 (configuration not stated),inactive
12,COc1cc([N+](=O)[O-])cc(/C=N/NC(=O)C(O)(c2ccccc2)c2ccccc2)c1O,active: 0.891 µM
13,CCc1ccccc1N(C1=NCCCS1)S(=O)(=O)c1ccc(C(C)(C)C)cc1,"inconclusive [inhibitor, single point]"
14,O=C1c2cccc3cc([N+](=O)[O-])cc(c23)C(=O)N1/N=C/c1ccc(O)cc1O,"inconclusive [inhibitor, single point]"
15,Cc1ccc(NNC(=O)CCc2ccccc2)c(C)c1,inactive
16,O=C(CCC1CCCCC1)NNC(=O)c1cnccn1,"inconclusive [inhibitor, single point]"
17,NC(=O)CC(NC(=O)Cc1ccc(Cl)cc1)c1ccc(NC2CCCCCCC2)c([N+](=O)[O-])c1 (configuration not stated),inactive
18,Oc1ccc(NC(=S)N=Nc2c(O)[nH]c3ccccc23)cc1,inactive
19,Cc1cc(NC(=O)CSc2nnnn2-c2ccc(C(C)C)cc2)no1,inactive
20,Cc1cccc(NC(=S)N2CCCCC2)c1,active: 17.8 µM
21,Cc1cccc(N2CCc3c2nc2ccc(Br)cc2c3N)c1,"inconclusive [inhibitor, single point]"
22,CC(C)=CC(=O)N1CCC(N2CCC(C(=O)NCC3CCCO3)CC2)CC1 (configuration not stated),inactive
23,O=[N+]([O-])c1cccc(CSC2=NCCN2S(=O)(=O)c2ccccc2)c1,inactive
24,Nc1nc(CSC(=S)N2CCOCC2)nc(Nc2ccc(F)cc2)n1,"inconclusive [activator, single point]"

row,SMILES,Potency
1,O=C(Nc1nccs1)c1ccc(Br)c(S(=O)(=O)N2CCOCC2)c1,"inconclusive [inhibitor, single point]"
2,O=C(NC(=S)Nc1ccc(CN2CCOCC2)cc1)c1ccc(-c2cccc(Cl)c2)o1,active: 14.1 µM
3,CCSc1nnc(NC(=O)NC(CC)(C(F)(F)F)C(F)(F)F)s1,"inconclusive [inhibitor, single point]"
4,Cc1ccc(S(=O)(=O)N2CCOCC2)cc1C(=O)NC(=S)N1CC(C)CC(C)C1 (configuration not stated),active: 5.01 µM
5,COc1ccccc1CNC(=O)C(C)NS(=O)(=O)c1ccc(Br)cc1 (configuration not stated),inactive
6,CCc1ccc(NC(=O)c2ccc(NC3=NC4CS(=O)(=O)CC4S3)cc2)cc1 (configuration not stated),"inconclusive [activator, single point]"
7,COc1ccc2[nH]c3c(NCCC4=CCCCC4)ncnc3c2c1,active: 7.08 µM
8,O=C(Nc1ccc2oc(-c3ccncc3)nc2c1)c1ccc2c(c1)OCCO2,"inconclusive [inhibitor, single point]"
9,O=C(CNC(=O)C1CCCCC1)OCc1cc(=O)oc2ccc3ccccc3c12,"inconclusive [activator, single point]"
10,C/C(=N\Nc1nc2ccccc2[nH]1)c1cc2ccccc2o1,active: 3.55 µM
11,Cc1ccccc1NC(=O)CN1C(=O)S/C(=C\c2ccc(-c3cc(C(=O)O)ccc3C)o2)C1=O,inactive
12,CCC(C)C(NC(=O)OCc1ccccc1)C(=O)NCC(c1ccccc1)N(C)C (configuration not stated),inactive
13,CN(C)S(=O)(=O)c1cccc(NC(=O)c2cc(-c3cccs3)nn2-c2ccccc2)c1,"inconclusive [inhibitor, single point]"
14,COc1ccc(-c2nsc3c(N4CCCCC4)ncnc23)cc1,"inconclusive [inhibitor, full curve]"
15,C/C(=N\NC(=O)COc1ccccc1-c1ccccc1)c1ccc(O)cc1O,"inconclusive [inhibitor, single point]"
16,COC(=O)N1CCN(c2ccc(Cl)c(Cl)c2)CC1,"inconclusive [inhibitor, single point]"
17,COc1ccccc1CC(=O)N1CCN(c2cccc(C(F)(F)F)c2)CC1,"inconclusive [inhibitor, single point]"
18,Cc1cnc(NC(=O)c2c(-c3ccccc3)noc2C)s1,"inconclusive [inhibitor, single point]"
19,N#C/C(=C(/O)COC(=O)CCC1CCCCC1)c1nc2ccccc2[nH]1,active: 10 µM
20,COc1cccc(CNC(=O)CCNS(=O)(=O)c2ccc3c(c2)oc(=O)n3C)c1,"inconclusive [inhibitor, single point]"
21,Cc1nn(-c2ccccc2)c2c1C(c1ccco1)C(C#N)=C(N)O2 (configuration not stated),"inconclusive [inhibitor, partial curve]"
22,O=C(CCCn1c(=S)[nH]c2ccsc2c1=O)NC1CCCCC1,"inconclusive [inhibitor, single point]"
23,CC(=O)O[C@H]1C(=O)[C@@]2(C)C([C@H](OC(=O)c3ccccc3)[C@]3(O)C[C@H](OC(=O)[C@H](O)[C@@H](NC(=O)c4ccccc4)c4ccccc4)C(C)=C1C3(C)C)[C@]1(OC(C)=O)CO[C@@H]1C[C@H]2O (some centres not stated),active: 20 µM
